Laboratory results reported in paper PMC5681660, “Reduced hepatitis B and D viral entry using clinically applied drugs as novel inhibitors of the bile acid transporter NTCP” (Scientific Reports, 2017).

Experiments:
human NTCP [1] = molecular target: T1, human NTCP (Homo sapiens, UniProt Q14973); assay: Screening fluorescent competitive Myrcludex B-FITC binding assay (96-well, 10 µM drug)
T1 sequence (Q14973 1-349): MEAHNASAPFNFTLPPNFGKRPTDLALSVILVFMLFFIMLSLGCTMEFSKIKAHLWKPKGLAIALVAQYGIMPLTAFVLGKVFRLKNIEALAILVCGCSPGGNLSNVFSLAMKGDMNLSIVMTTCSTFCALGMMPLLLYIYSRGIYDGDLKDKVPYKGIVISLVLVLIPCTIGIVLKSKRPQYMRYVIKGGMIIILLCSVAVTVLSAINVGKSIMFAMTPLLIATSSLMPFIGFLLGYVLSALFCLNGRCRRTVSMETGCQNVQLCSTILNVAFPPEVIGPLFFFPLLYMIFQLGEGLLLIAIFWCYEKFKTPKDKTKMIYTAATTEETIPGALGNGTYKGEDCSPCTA

human NTCP [2] = molecular target: T1, human NTCP; assay: Screening taurocholate uptake assay (96-well, [14C]taurocholate, 10 µM drug); details: for remaining activity at 10 µM: 10 min, read-out: %NTCP activity
[3] = Prestwick library screen, Myrcludex B-FITC binding, 10 µM drug
[4] = Prestwick library screen, 10 µM drug, Myrcludex B-FITC binding
[5] = Prestwick library screen, 10 µM drug, [14C]taurocholate uptake
[6] = screen, 10 µM drug, Myrcludex B-FITC binding
[7] = 0.5 h, read-out: %NTCP binding, screen, 10 µM drug, Myrcludex B-FITC binding
[8] = screen, 10 µM drug, [14C]taurocholate uptake
[9] = 0.5 h, read-out: %NTCP binding, Prestwick library screen, Myrcludex B-FITC binding, 10 µM drug

Row | Structure (SMILES) | remaining activity at 10 µM (human NTCP [1]; 0.5 h, read-out: %NTCP binding) [%] | remaining activity at 10 µM (human NTCP [2]) [%] | other results
1 | Nc1nc(NC2CC2)c2ncn([C@H]3C=C[C@@H](CO)C3)c2n1 [Abacavir Sulfate] | 125 | 75.4 | 
2 | CC(C)(Oc1ccc(Cl)cc1)C(=O)O [Clofibric acid] | 96.3 | 95.7 | 
3 | O=C1NCC2(CCN(CCc3ccccc3)CC2)O1 [Fenspiride hydrochloride] | 72.7 | 132 | 
4 | C#CCN(C)CCCOc1ccc(Cl)cc1Cl [Clorgyline hydrochloride] | 66.1 | 62.4 | 
5 | Cc1ccc(C(=O)c2ccc(CC(=O)O)n2C)cc1 [Tolmetin sodium salt dihydrate] | 106 | 119 | 
6 | CC(C(O)c1ccc(O)cc1)N1CCC(Cc2ccccc2)CC1.CC(C(O)c1ccc(O)cc1)N1CCC(Cc2ccccc2)CC1.O=C(O)C(O)C(O)C(=O)O (centres unmarked) [Ifenprodil tartrate] |  |  | %NTCP binding (human NTCP [1]; [3]): 75.0771%; %NTCP activity (human NTCP [2]; Prestwick library screen, [14C]taurocholate uptake, 10 µM drug): 83.9725%
7 | N=C(N)NC(=O)c1nc(Cl)c(N)nc1N [Amiloride hydrochloride dihydrate] | 123 | 109 | 
8 | CN1CCC2(C)c3cc(O)ccc3N(C)C12.O=C(O)/C=C/C(=O)O (single isomer, unassigned; (-)) [(-)-Eseroline fumarate salt] |  |  | %NTCP binding (human NTCP [1]; [3]): 91.3948%; %NTCP activity (human NTCP [2]): 43.2314%
9 | CC(=O)CC(c1ccc([N+](=O)[O-])cc1)c1c(O)c2ccccc2oc1=O (centres unmarked) [Acenocoumarol] | 75.5 | 71.3 | 
10 | O=C(c1ccccc1)c1ccc2n1CCC2C(=O)O (centres unmarked) [Ketorolac tromethamine] | 85.5 | 58 | 
11 | COc1ccccc1OCCNCC(O)COc1cccc2[nH]c3ccccc3c12 (centres unmarked) [Carvedilol] | 59.1 | 90.3 | 
12 | COc1cc(-c2ccc(=O)[nH]n2)ccc1OC(F)F [Zardaverine] | 110 | 41.3 | 
13 | O=C1c2ccccc2C(=O)C1c1ccccc1 [Phenindione] | 74.9 | 105 | 
14 | CS(=O)(=O)c1ccc([C@@H](O)[C@@H](CO)NC(=O)C(Cl)Cl)cc1 [Thiamphenicol] | 108 | 84 | 
15 | CN(C)CCCSC(=N)N.Cl.Cl [Dimaprit dihydrochloride] |  |  | %NTCP binding (human NTCP [1]; [4]): 113.568%; %NTCP activity (human NTCP [2]; [5]): 99.1906%
16 | CCOC(=O)C1=C(C)NC(C)=C(C(=O)OCC)C1c1ccccc1/C=C/C(=O)OC(C)(C)C [Lacidipine] | 84.5 | 115 | 
17 | CN(C)CCOC(=O)COc1ccc(Cl)cc1.Cl [Meclofenoxate hydrochloride] |  |  | %NTCP binding (human NTCP [1]; [6]): 80.5418%; %NTCP activity (human NTCP [2]): 84.543%
18 | CC(=O)OCC(=O)[C@@]1(O)CC[C@H]2[C@@H]3CCC4=CC(=O)CC[C@]4(C)[C@@]3(F)[C@@H](O)C[C@@]21C [Fludrocortisone acetate] | 72.5 | 36.3 | 
19 | CC(C(=O)O)c1ccc(N2Cc3ccccc3C2=O)cc1 (centres unmarked) [Indoprofen] | 114 | 116 | 
20 | CNS(=O)(=O)Cc1ccc2[nH]cc(CCN(C)C)c2c1 [Sumatriptan succinate] | 86 | 113 | 
21 | COc1ccc(C(=O)N2CCCC2=O)cc1 [Aniracetam] |  | 115 | remaining activity at 10 µM (human NTCP [1]; [7]): 83.2%
22 | [H]/N=C(/NCCCCC)N/N=C/c1c[nH]c2ccc(OC)cc12 [Tegaserod maleate] | 89 | 97.6 | 
23 | COc1cc([S+](C)[O-])ccc1-c1nc2ncccc2[nH]1 (centres unmarked) [Sulmazole] | 64.6 | 124 | 
24 | COc1ccc(CC2c3cc(OC)c(OC)cc3CC[N+]2(C)CCC(=O)OCCCCCOC(=O)CC[N+]2(C)CCc3cc(OC)c(OC)cc3C2Cc2ccc(OC)c(OC)c2)cc1OC (centres unmarked) [Atracurium besylate] | 115 | 130 | 
25 | O=C(O)CNC(=O)C(CS)Cc1ccccc1 (centres unmarked) [Thiorphan] | 83.5 | 119 | 
26 | OC[C@H]1O[C@@H](Oc2ccc(O)cc2)[C@H](O)[C@@H](O)[C@@H]1O [Arbutin] | 108 | 92.7 | 
27 | CCN(CC)CCOC(=O)C(c1ccccc1)C1CCCCC1 (centres unmarked) [Drofenine hydrochloride] | 88.6 | 106 | 
28 | C[C@H](Cc1cc2c(c(C(N)=O)c1)N(CCCO)CC2)NCCOc1ccccc1OCC(F)(F)F [Silodosin] | 91.7 | 72.9 | 

Row | Structure (SMILES) | remaining activity at 10 µM (human NTCP [1]; 0.5 h, read-out: %NTCP binding) [%] | remaining activity at 10 µM (human NTCP [2]) [%] | other results
29 | Cl.Clc1ccc(C(OCCN2CCCCC2)c2ccccc2)cc1 (centres unmarked) [Cloperastine hydrochloride] |  |  | %NTCP binding (human NTCP [1]; [4]): 76.1406%; %NTCP activity (human NTCP [2]): 95.7222%
30 | CCCCC1C(=O)N(c2ccccc2)N(c2ccccc2)C1=O [Phenylbutazone] | 85.3 | 57.1 | 
31 | CC1(C)NC(=O)N(c2ccc([N+](=O)[O-])c(C(F)(F)F)c2)C1=O [Nilutamide] | 88 | 103 | 
32 | CC(=O)OC(C)C[N+](C)(C)C (centres unmarked) [Methacholine chloride] | 78.1 | 92.3 | 
33 | CCn1cc(C(=O)O)c(=O)c2cnc(N3CCCC3)nc21 [Piromidic acid] | 91.3 | 120 | 
34 | CC12CC3CC(C)(C1)CC(N)(C3)C2 [Memantine Hydrochloride] | 93.9 | 116 | 
35 | Cl.N=C(N=C(N)N)N1CCOCC1 [Moroxidine hydrochloride] |  |  | %NTCP binding (human NTCP [1]; [4]): 95.4161%; %NTCP activity (human NTCP [2]; [5]): 57.3352%
36 | CCC(COC(=O)c1cc(OC)c(OC)c(OC)c1)(c1ccccc1)N(C)C (centres unmarked) [Trimebutine] | 91.2 | 51.7 | 
37 | Cl.Cl.Fc1ccc(C(OCCN2CCN(CCCc3ccccc3)CC2)c2ccc(F)cc2)cc1 [GBR 12909 dihydrochloride] |  |  | %NTCP binding (human NTCP [1]; [6]): 41.933%; %NTCP activity (human NTCP [2]; [8]): 59.478%
38 | O=c1[nH]cnc2c1ncn2[C@H]1CC[C@@H](CO)O1 [Didanosine] | 93.9 | 98.1 | 
39 | Nc1nnc(-c2cccc(Cl)c2Cl)c(N)n1 [Lamotrigine] | 94.5 | 123 | 
40 | CCCC(C)(COC(N)=O)COC(=O)NC(C)C (centres unmarked) [Carisoprodol] |  | 34.4 | remaining activity at 10 µM (human NTCP [1]; [9]): 104%
41 | Nc1ccc(C(=O)O)c(O)c1 [4-aminosalicylic acid] |  | 124 | remaining activity at 10 µM (human NTCP [1]; [7]): 82.9%
42 | COc1ccc(C(CN(C)C)C2(O)CCCCC2)cc1 (centres unmarked) [Venlafaxine] |  | 118 | remaining activity at 10 µM (human NTCP [1]; [7]): 76.2%
43 | CCN(CC)CCNc1ccc(CO)c2sc3ccccc3c(=O)c12 [Hycanthone] | 80.1 | 66 | 
44 | CC(=O)c1ccc2c(c1)N(CCCN(C)C)c1ccccc1S2.O=C(O)/C=C\C(=O)O [Acetopromazine maleate salt] |  |  | %NTCP binding (human NTCP [1]; [6]): 71.3376%; %NTCP activity (human NTCP [2]; [8]): 120.852%
45 | Nc1ccc(C(=O)NCC(=O)O)cc1 [Aminohippuric acid] | 114 | 70.9 | 
46 | CC(=O)[C@@]1(O)CC[C@H]2[C@@H]3C[C@H](C)C4=CC(=O)C=C[C@]4(C)[C@@]3(F)[C@@H](O)C[C@@]21C [Fluorometholone] | 77.8 | 99.6 | 
47 | C[C@]12CC[C@@H]3c4ccc(O)cc4C[C@@H](CCCCCCCCC[S+]([O-])CCCC(F)(F)C(F)(F)F)[C@H]3[C@@H]1CC[C@@H]2O (some centres unmarked) [Fulvestrant] | 83.1 | 53.7 | 
48 | CCc1c(C)[nH]c2c1C(=O)C(CN1CCOCC1)CC2 (centres unmarked) [Molindone hydrochloride] | 73.3 | 92 | 
49 | COCC1=C(C(=O)OC(C)OC(=O)OC(C)C)N2C(=O)[C@@H](NC(=O)/C(=N\OC)c3csc(N)n3)[C@H]2SC1 (some centres unmarked) [Cefpodoxime proxetil] | 40.4 | 109 | 
50 | C1CCc2nnnn2CC1 [Pentylenetetrazole] |  | 118 | remaining activity at 10 µM (human NTCP [1]; [9]): 77.7%
51 | COc1ccc(NS(=O)(=O)c2ccc(N)cc2)nn1 [Sulfamethoxypyridazine] | 110 | 75.2 | 
52 | Oc1ccc(OCc2ccccc2)cc1 [Monobenzone] | 115 | 49.5 | 
53 | NC[C@H]1O[C@H](O[C@H]2[C@H](O)[C@@H](O[C@H]3O[C@H](CO)[C@@H](O)[C@H](N)[C@H]3O)[C@H](N)C[C@@H]2N)[C@H](N)C[C@@H]1O [Tobramycin] | 79.4 | 70.8 | 
54 | N=C(N)NC(=O)Cc1c(Cl)cccc1Cl [Guanfacine hydrochloride] | 54.1 | 70.9 | 
55 | CCC1(c2ccccc2)NC(=O)N(C)C1=O (centres unmarked) [Mephenytoin] | 78.1 | 146 | 

Counter-ions that a name gives are not always drawn. Like-named read-outs stand apart in the source and are kept apart here.
